From PubChem BioAssay (NCI)
Several values for one entry are separate records, joined by “and”; a condition that tells them apart may be missing. Equal values may be shown once.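 Cells were grown in 96-well plates and exposed to each compound for 48 hours at five concentrations; endpoints were interpolated linearly between bracketing concentrations, or set to the highest concentration if not reached. GI50: concentration for 50% inhibition of growth. TGI: concentration producing complete growth inhibition.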

Tested on: NCI-H322M lung
Experiment: NCI anticancer screen, dose series, 48 h

Compound	TGI	GI50
CC(=O)O[C@@H]1[C@H]2O[C@H]2[C@H]2O[C@@]2(COC(=O)c2ccccc2)[C@H]1OC(C)=O	> 100 µM	
CC(=O)OC(C(=O)NNC(=O)OC(C)(C)C)c1ccccc1 (stereo not given)	> 100 µM	
O=C1N(c2ccccc2)C2(O)C(=O)c3ccccc3C2(O)N1c1ccccc1 (stereo not given)	> 100 µM	
Nc1nc(NCc2ccccc2)cc(NCc2ccccc2)n1	21.7 µM	
C=C1C(=O)O[C@H]2[C@H]1CC/C(COC(=O)NCc1ccc(Cn3c(=O)sn(CCCI)c3=O)cc1)=C\CC[C@@]1(C)O[C@@H]21	24.1 µM	11.6 µM
CC1SC(c2ccc(OCc3ccccc3)cc2)N(NC(=O)C(O)(c2ccccc2)c2ccccc2)C1=O (stereo not given)	20.5 µM	4.84 µM
CC(C)CC(=O)O[C@H]1C(=O)O[C@@H]2C[C@H]3[C@H](C)C(=O)C(O[C@@H]4O[C@H](CO)[C@@H](O)[C@H](O)[C@H]4O)=C[C@]3(C)[C@H]3[C@@H](O)[C@H](O)[C@]4(C(=O)O)OC[C@]32[C@@H]14	> 100 µM	> 100 µM
CC(C)c1c(C(=O)Nc2ccccc2)c(-c2ccccc2)c(-c2ccc(F)cc2)n1CC[C@@H](O)C[C@@H](O)CC(=O)O	> 100 µM	39.9 µM
COc1ccc(Cc2c3cc(OC)c(OC)cc3cc[n+]2C)cc1	> 55.7 µM	
COc1cc(/C=C2\C(=O)Nc3ccc(O)cc32)cc(OC)c1OC	59 µM	22.5 µM
CC(C)OC(=O)OCOP(=O)(OCOC(=O)OC(C)C)C1CCCN(O)C1=O (stereo not given)	> 100 µM	1.04 µM
Cc1c(Cl)ccc2[s+]snc12	> 100 µM	
CCCCCCCC(=O)N1C2CC3CCC2(CS1(=O)=O)C3(C)C (stereo not given)	> 10 µM	
COc1ccc2nc3cc(Cl)ccc3c(NCCCN(C)CCCNc3ccc4ncn5c6ccccc6c(=O)c3c45)c2c1	6.81 µM	
O=C(CC1(O)C(=O)Nc2ccc(Br)cc21)c1cccc([N+](=O)[O-])c1 (stereo not given)	> 100 µM	
Fc1cnccc1-c1nc2ccc3[nH]ncc3c2c2c1CCCC2	> 100 µM	1.83 µM
CCOC(=O)c1c2ccccc2n2c(=O)n(-c3ccccc3)nnc12	> 100 µM	
C[N+](C)(C)CC(=O)N/N=C\c1c(O)ccc2ccccc12	> 100 µM	
COc1cc2nc(NC3CCC3)nc(NC3CCN(C(C)C)CC3)c2cc1OC	13.2 µM	3.01 µM
CCOC(=O)n1c(=O)nc2c3c(ncn21)Oc1c(c(-c2ccccc2)nn1-c1ccccc1)C3c1ccc(Cl)cc1 (stereo not given)	2.68 µM	
Cc1cc(C)c(CNC(=O)c2cc(Cl)c3c(c2C)O[C@@](C)(C2CCC(N(C)C)CC2)O3)c(=O)[nH]1 (stereo not given in full)	> 100 µM	> 100 µM
CCOc1ccc(-c2nc3ccc(-c4nc5ccc(N6CCN(C)CC6)cc5[nH]4)cc3[nH]2)cc1OCC	8.64 µM	2.42 µM
CSc1ccc(/C=C2\N=C(c3ccccc3)N(NC(=O)c3c(Cl)c(Cl)c(Cl)c(Cl)c3-c3nc4ccccc4[nH]3)C2=O)cc1	> 100 µM	
Nc1nc(-c2ccccn2)c(-c2ccc3ncccc3n2)s1	> 25 µM	> 25 µM

Compound	TGI	GI50
C=C1C(=O)O[C@H]2[C@@H]3O[C@@](C)(CC/C=C(\C)CCC[C@@H]2C)[C@H](O)C[C@@H]13	36.1 µM	
CC(=O)OC1=C(c2ccccc2)S(=O)(=O)c2ccccc21	> 100 µM	
N/C(=N\O)c1cn(C2OC(CO)C(O)C2O)c2ncnc(N)c12 (stereo not given)	> 47.9 µM	0.513 µM
Nc1ccc(Oc2ccc(C3(c4ccc(Oc5ccc(N)c(O)c5)cc4)C4CC5CC(C4)CC3C5)cc2)cc1O	2.64 µM	
CCn1nc(C#Cc2c(C)ccc3c(Nc4ccc(Cl)cc4)nccc23)c2c(N)ncnc21	> 100 µM	24.6 µM
O=c1[nH]c(-c2ccncc2)nc2sc3c(c12)CCCCCC3	> 100 µM	> 100 µM
C=C(CN1CCc2ccccc2C1)c1ccc(C(=O)Nc2cccc(N)c2)cc1	84.7 µM	24.7 µM
O=c1cc(O)c1=O	> 100 µM	
CC(C)C1CC(CO)(CNc2nc(N)nc(Cl)c2C=O)C1 (stereo not given)	10.5 µM	
O=C(Nc1cc(Cl)ccc1Cl)c1cc2ccccc2oc1=O	> 100 µM	
COc1ccccc1Nc1nc(N)nc(N)c1N	> 100 µM	
COc1ccc(CCN2C(=O)C(=O)C(C(=O)c3ccccc3)C2c2ccccc2)cc1OC (stereo not given)	> 100 µM	
CC(=O)Nc1ccc(/C=C/C(=O)c2sc(-n3nc(-c4ccccc4)cc3-c3ccccc3)nc2C)cc1	> 100 µM	
O=C1OCC2=C1C(c1ccc(Cl)cc1)c1cc3c(cc1O2)OCO3 (stereo not given)	> 100 µM	
COC(=O)C#CC1(O)C=CC(=O)C=C1	24.2 µM	
COc1cc(Br)c(C2OCCCO2)cc1OCc1ccccc1	> 100 µM	
NC1=Nc2cc(OCCCCN3Cc4ccccc4C3)c(OCC3CC3)cc2C12CCCC2	9.37 µM	2.73 µM
COc1ncc(-c2ccc3nc(N)n(-c4ccccc4C(F)(F)F)c(=O)c3c2)cc1S(=O)(=O)Nc1ccc(F)cc1F	5.57 µM	0.384 µM
O=C(N=Nc1c(O)[nH]c2c(Cl)cc(Cl)cc12)C(=O)Nc1cccc(C(F)(F)F)c1	> 100 µM	
O=c1oc2cc(O)ccc2c(O)c1C(c1ccc(/C=C/c2ccccc2)cc1)c1c(O)c2ccc(O)cc2oc1=O	> 100 µM	
N#Cc1cccc(C2SCc3nc4ccccc4n32)c1 (stereo not given)	> 100 µM	
O=C(O)c1ccc2nc(-c3ccccn3)c(-c3ccccn3)nc2c1	> 100 µM	
c1c[nH]c(CN2CCN(Cc3ncc[nH]3)CC2)n1	> 100 µM	
Cc1ccc(Nc2nc3ccccc3nc2NS(=O)(=O)c2ccc(N)cc2)cc1	> 100 µM	

Compound	TGI	GI50
Nc1ncnc2c1ncn2C1SC(CO)C(O)C1O (stereo not given)	88.3 µM	29.3 µM
CNC(=S)N/N=C/CSC/C=N/NC(=S)NC	> 100 µM	> 100 µM
CCCN1CCCC(c2ccc(Nc3nc(Nc4cc(F)ccc4C(N)=O)c4cc[nH]c4n3)c(OC)c2)C1 (stereo not given)	4.57 µM	0.314 µM
COC1=C(OC)C(=O)c2cc(C)c(=O)c(C)cc2C1=O	32.3 µM	
CC1(C)CC[C@]2(C(=O)O)CC[C@]3(C)C(=CC[C@@H]4[C@@]5(C)C/C(=C/c6cccnc6)[C@H](O)C(C)(C)[C@@H]5CC[C@]43C)[C@@H]2C1	45.3 µM	3.99 µM
O=C(/C=C/c1ccccc1)c1ccccn1	31.3 µM and > 100 µM	17.5 µM and 44.2 µM
NC(Cc1c2ccccc2cc2ccccc12)C(=O)O (stereo not given)	> 100 µM	
COc1cc(-c2nn(-c3cccc(NC(=O)NCCNC(=O)c4ccccc4)c3)cc2-c2ccncc2)ccc1Cl	> 100 µM	6.16 µM
COc1cc2c(cc1O)CCN[C@@]21CS[C@H]2c3c(OC(C)=O)c(C)c4c(c3C(COC1=O)N1C2C2NC(Cc3cc(C)c(OC)c(O)c32)[C@@H]1C#N)OCO4 (stereo not given in full)	< 0.01 µM	
NS(=O)(=O)c1ccc(NNc2c3ccccc3nc3c(C(=O)Nc4ccc(S(N)(=O)=O)cc4)cccc23)cc1	> 100 µM	
CN(C)c1ccc(-c2cc(-c3cccc(NS(C)(=O)=O)c3)nc(N)c2C#N)cc1	> 78.3 µM	0.597 µM
Nc1cc2c(C3OC(CO)C(O)C3O)[nH]nc2c(=S)[nH]1 (stereo not given)	> 100 µM	
C/C(=C\COP(=O)(O)CP(=O)(O)O)CC/C=C(\C)CNc1ccccc1	> 100 µM	
O=[N+]([O-])c1ccc(-c2ccc([C@H]3CC(c4cc(F)c(Cl)cc4Cl)=NN3)o2)cc1	> 100 µM	
O=c1[nH]c2ccccc2c(=O)c2cc3ccccc3cc12	> 100 µM	
COc1ccc(-c2cc(-c3ccc(Cl)cc3)c(C#N)c(=O)n2CCCCCC(=O)Nc2ccccc2N)cc1	> 100 µM	8.88 µM
O=C(CNC(=O)c1cccc2ccccc12)Nc1ccccc1Oc1ccc(O)cc1	> 25 µM	1.16 µM
CCn1c(O)c(C(=O)Nc2cccs2)c(=O)n(CC)c1=S	63.4 µM	
O=C(c1ccccc1)N1N=C(C(F)(F)F)CC1(O)C(F)(F)F (stereo not given)	> 100 µM	
CN1CN(c2ccccc2)C2(CCN(CCCN(C)c3ccc(F)cc3)CC2)C1=O	40.5 µM	
COC(=O)c1nc2n(n1)-c1ccccc1C(=O)N(Cc1ccccc1)C2	> 100 µM	
CC(=O)OCC1OC(Sc2nc(-c3ccccc3)c(C#N)c(=O)n2C2OC(COC(C)=O)C(OC(C)=O)C(OC(C)=O)C2OC(C)=O)C(OC(C)=O)C(OC(C)=O)C1OC(C)=O (stereo not given)	> 100 µM	
CC(C)c1cc(C(C)C)c(S(=O)(=O)N/N=C2\CC3CCC2(C)C3(C)C)c(C(C)C)c1 (stereo not given)	> 100 µM	
CC[C@@]12CC(C(=O)OC)=C3Nc4ccccc4[C@@]34CCN(C[C@H]3O[C@H]31)[C@@H]24	> 100 µM	> 100 µM

Compound	TGI	GI50
COc1ccc2c(c1)OCC1c3cc(OC)ccc3OC21 (stereo not given)	> 100 µM	> 100 µM
C/C=C/C(C/C=C(\C)CO[Si](C)(C)C(C)(C)C)O[Si](C)(C)C(C)(C)C (stereo not given)	> 100 µM	
C=CC(C)(C)[C@@]12CC3C(=O)N[C@@H](Cc4ccccc4)C(=O)N3[C@@H]1N(C(C)=O)c1ccccc12 (stereo not given in full)	> 100 µM	
COc1cc(CCNC2=CC(=O)c3ncccc3C2=O)ccc1O	16 µM	
Cc1c(CNc2ccc(Cl)c(Cl)c2Cl)cnc2nc(N)nc(N)c12	> 44.6 µM	
CC(C)=CCN1c2ccccc2[C@@]2(CC=C(C)C)CCN(C)[C@@H]12	> 100 µM	
CN(C)CCC(C#N)(c1ccccc1)c1ccccc1	> 100 µM	
COCc1nc(C#N)c(N)o1	> 10 µM	
CC12CCC(C(=Nc3ccc([N+](=O)[O-])cc3)C1=O)C2(C)C (stereo not given)	> 100 µM	
CN(C)CCCn1c2c(c3ccc(N4CCNCC4)cc3c1=O)C(=O)c1ccccc1-2	2.29 µM	0.451 µM
O=C(O)CN1CCN2CCOCCN(CC1)CCN(CC(=O)O)CC2	> 100 µM	
CCCCCCCCCCCCOC(=N)N1CCOCC1	30.2 µM	
CCCCc1c2c([n+]([O-])c3c1CCCC3)CCCC2	> 100 µM	
BrC(/C=N/Nc1nnc(-c2ccccc2)c(-c2ccccc2)n1)C(Br)c1ccccc1 (stereo not given)	> 100 µM	
CS(=O)(=O)Sc1ccc(Cl)cc1	32.4 µM	
CN(C)CCCCN1c2ccccc2Sc2ccc(N=[N+]=[N-])cc21	21 µM	
COc1cc(/C=C(\C#N)C(=O)c2ccccc2)cc(OC)c1OC	> 100 µM	
COc1cccc(O)c1-c1cc(=O)c2c(O)c(OC)c(OC)c(OC)c2o1	> 100 µM	
CC(=O)OCCn1c(Cc2ccc(Cl)cc2)nn(C(C)=O)c1=O	> 100 µM	
N#CC(C#N)=CNC(=S)Nc1ccc(S(=O)(=O)Nc2nccs2)cc1	> 100 µM	
O=C(NC(=Nc1ccccc1)SCCSC(=Nc1ccccc1)NC(=O)c1ccccc1)c1ccccc1	> 100 µM	
O=C(c1ccco1)c1c(C(F)(F)F)n([O-])c2cc(Cl)c(Cl)cc2[n+]1=O	15.2 µM	8.16 µM
COc1cc(N(CCC#N)CCC#N)ccc1/C(N=Nc1cccc([N+](=O)[O-])c1)=N\NC(=O)c1ccc(C)cc1	> 100 µM	
